Source: PubChem BioAssay AID360 (National Center for Advancing Translational Sciences (NCATS), 2006)
Out of some 48,000 compounds screened, about 550 (1.1%) were called active. Roughly 4% stayed inconclusive and do not appear here. Cut-off read from the data, not from the text of the source: active = potency below about 15 µM; inconclusive = mostly about 16 µM to 33 µM; inactive = weaker than that. The list shows a part of the results.

target: Lysosomal acid glucosylceramidase (Homo sapiens) (UniProt P04062); assay: Glucocerebrosidase; details: purified enzyme, resorufin glucoside fluorescence (screen aimed at inhibitors), 20 min;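 note: the screen sought inhibitors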
Sequence of UniProt P04062 (P04062 whole entry, looked up): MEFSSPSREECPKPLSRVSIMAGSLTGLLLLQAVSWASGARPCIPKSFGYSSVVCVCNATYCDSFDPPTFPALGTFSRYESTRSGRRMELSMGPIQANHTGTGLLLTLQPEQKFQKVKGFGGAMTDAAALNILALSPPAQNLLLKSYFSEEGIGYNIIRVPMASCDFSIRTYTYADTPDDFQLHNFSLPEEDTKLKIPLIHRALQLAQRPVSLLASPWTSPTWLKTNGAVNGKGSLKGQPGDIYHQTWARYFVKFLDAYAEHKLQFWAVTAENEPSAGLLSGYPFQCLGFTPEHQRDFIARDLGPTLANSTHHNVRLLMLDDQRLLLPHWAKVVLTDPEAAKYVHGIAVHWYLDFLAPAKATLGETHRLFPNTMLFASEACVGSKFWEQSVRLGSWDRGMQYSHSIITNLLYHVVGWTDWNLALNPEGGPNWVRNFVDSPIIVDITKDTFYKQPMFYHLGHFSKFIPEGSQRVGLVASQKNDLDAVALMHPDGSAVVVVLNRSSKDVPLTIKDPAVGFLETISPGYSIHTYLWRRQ
Summary of the method: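 Compounds titrated against 0.2 nM normal enzyme, 30 uM resorufin beta-D-glucopyranoside substrate, citrate/phosphate buffer with taurocholate and tween-20, pH 5.9. Reaction ran 20 min at room temperature; fluorescence (Ex 548/Em 600) gave AC50.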
Potency is the fitted concentration of half-maximal effect.

Potency, inactive:
CCCn1c(=O)c(C(=O)Nc2ccccc2C(=O)OCC)c(O)c2ccccc21
COc1ccc(CCNC(=O)CSc2nc(N)c3c(C)c(C)oc3n2)cc1OC > 76.9 µM
CCn1c(SCC(=O)Nc2ccccc2N2CCOCC2)nnc1-c1ccccc1 > 76.9 µM
O=C(O)c1cccn2c(=O)c3ccccc3nc12 > 76.9 µM
O=C(Cn1c(=O)n2ncnc2c2c3c(sc21)CCCC3)c1ccccc1 > 76.9 µM
COc1cc(S(=O)(=O)N2CCN(c3ccccc3F)CC2)c(OC)cc1Cl > 76.9 µM
O=C(NC1CC1)c1c[nH]c2ccc(S(=O)(=O)Nc3cccc(C(F)(F)F)c3)cc2c1=O > 76.9 µM
COC(=O)c1ccccc1NC(=O)CNc1cc(Cl)ccc1N1CCOCC1 > 76.9 µM
Cn1c(=O)oc2cc(S(=O)(=O)NCCC(=O)Nc3ccc4c(c3)OCCO4)ccc21 > 76.9 µM
Cc1ccc(C2NC(=O)c3c(sc4c3CCN(C)C4)N2)o1 (stereo not given) > 76.9 µM
CCOc1ccc(C(=O)NCC(C)CN(C)C)cc1OCC (stereo not given) > 76.9 µM
COCCNC(=O)c1cc2sc3ccccc3c2s1 > 76.9 µM
COc1ccc(CNC(=O)C2CC=CCC2C(=O)O)cc1OC (stereo not given) > 76.9 µM
CC12CCC(C(=O)N3CCN(c4ncccn4)CC3)(c3nc4ccccc4nc31)C2(C)C (stereo not given) > 76.9 µM
CCC(C)c1ccc(O)c(NC(=O)c2cccnc2)c1 (stereo not given) > 76.9 µM
O=C(OC(C(=O)NC1CCCC1)c1ccc(F)cc1)c1ccno1 (stereo not given) > 76.9 µM
O=C(CCNS(=O)(=O)c1ccc2c(c1)CCC(=O)N2)NCc1cccnc1 > 76.9 µM
Cc1cc(Cl)ccc1OCC(=O)N1CCCCC1 > 76.9 µM
COc1ccc(OC)c(-c2cc(C(=O)Nc3c(C)nn(Cc4ccccc4)c3C)no2)c1 > 76.9 µM
CCCNC(=O)CC(NS(=O)(=O)c1ccc(Cl)cc1)c1ccco1 (stereo not given) > 76.9 µM
Clc1ccc(Cn2ncc3c(NCc4ccco4)ncnc32)c(Cl)c1
COc1cc2[nH]c3c(N4CCN(c5ccc(Cl)cc5)CC4)ncnc3c2cc1OC > 76.9 µM
O=C(CN1C(=O)C2CC=CCC2C1=O)Nc1nc2ccccc2[nH]1 (stereo not given) > 76.9 µM
CCN(CC)CCCNC(=O)c1cn(CCOC)c(=O)c2c1c1ccccc1n2C > 76.9 µM
O=S(=O)(Cc1ccccc1)NCc1ccccn1 > 76.9 µM
